# Variants at the background level are over-represented here.
# B1: TPR 5TU (parent)
# chain: GGAUCUUCUCGAUCUAACAAAAAAGACAAAUCUGCCACAAAGCUUGAGAGCAUCUUCGGAUGCAGAGGCGGCAGCCUUCGGUGGCGCGAUAGCGCCAACGUUCUCAACUAUGACACGCAAAACGCGUGCUCCGUUGAAUGGAGUUUAUCAUG
# Variants of: B1
# Experiment: polymerase ribozyme fitness, log enrichment relative to wild type (log ratio); higher = more active; in vitro selection for triplet polymerase activity
# How it was run: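 Libraries of mutants in each subunit of a heterodimeric triplet polymerase ribozyme were generated by PCR and transcribed. In triplicate, each went through one in vitro selection round: annealing with biotinylated primer, partner subunit and triplets; frozen incubation at −7 °C; gel excision of extended constructs; streptavidin-bead capture; RT-PCR. Fitness, taken from Illumina sequencing of input and output libraries, is the logarithm of a genotype's enrichment over wild-type enrichment, averaged across replicates with inverse-variance weights. The logarithm is base 2, and genotypes needed ≥10 input reads and ≥1 read per output to be kept.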
row,Variant,polymerase ribozyme fitness (log ratio)
1,GGAUCUUCUCGAUCUAACAAAAAAGACAAAACUGCCACAAAGCUUGAGAGCAUCUUCGGAUGCAGAGGCGGCAGCCUUCGGUGGUGCGAUAGCGACAACGUUCUCAACUUUGACACGCAAAACGCGUGCUCCGUUGAAUGGAGUUUAUCAUG [U31A C85U C95A A110U],≤ -4.2
2,GGAUCUUCUCGAUCUAACAAAAAAGACAAAACUGCCACAAAGCUAGAGAGCAUCGUCGGAUGCAGAGGCGGCAGCCUUCGGUGGUGCGAUAGCGGCAACGUUCUCAACUAUGACACGCAGAACGCGUGCUCCGUUGAAUGGUGUUUAUCAUG [U31A U45A U55G C85U C95G A120G A142U],-4.06
3,GGAUCUUCUCGAUCUAACAAAAAAGACAAAACUGCCACAAAGCUUGAGAGCAUCAUCGGAUGCAGAGGCGGCAGCCUUCGGUGGCGCGAUAGCGUCAACGUUCUCAACUAUGACACGCAAAACGCGUUCUCCGUUGCAUGGAUUUUAUCAUG [U31A U55A C95U G128U A137C G143U],≤ -4.2
4,GGAUCUUCUCGAUCUAACAAAAAAGACAAAACUACCACAAAGCUUGAGAUCAUCUUCUGAUGCAGAGGCGGCAGCCUUCGGUGGCGCGAUAGCGCAAACGUUCUCAACUAUGACACGCAAAACGCGUGCUCCGUUGAUUGGAGUUUAUCAAG [U31A G34A G50U G58U C96A A138U U151A],≤ -4.2
5,GGAUCUUCUCGAUCUAACAAAAAAGACAAAACUGCCACAAAGCUUGAGAGCAUCUUCGCAUGCGGAGGCGGCAGCCUUCGGUGGCGUGAUAGCGCCAACGUUCUCAACUAUGACACGCAAAUCGCGUGCUCCGUUGAAUGGCGUUUAUCAUG [U31A G59C A64G C87U A122U A142C],≤ -4.2
6,GGAUCUUCUCGAUCUAACAAAAAAGACAAAACUGCCACAAAGCAUGAGAGCAUCUUCGGAUGCAGAGGAGGCAGCCUUCGGUGGCGCGAUAGCGACAUCGUUCUCAACUAUGACACGCAAAACGCGUGCUCCGUUGAAUGGAGUUUAUCAUG [U31A U44A C69A C95A A98U],≤ -4.2
7,GGAUCUUCUCGAUCUAACAAAAAAGACAAAACUGCCACAAAGCUUGAGAGCAUCUUCGGAUGCAUAGGCGGCAGCCUUCGGUGGCGCGAUAGGGCCAACGUUCUCAACUAUGACACGCAAAACGCGUGCUCCGUCGAAUGGAGUUUAUCAUG [U31A G65U C93G U135C],≤ -4.2
8,GGAUCUUCUCGAUCUAACAAAAAAGACAAAACUGCCACAAAGCGUGAGACCGUCUUCGGAAGCAGAGGCGGCAGCCUUCGGUGGCGCGAUAGCGCCAACGUUCUCAACUAUGACACGCACAACGCGUGCUCCGUUGAAUUGAGUUUAUCAUG [U31A U44G G50C A52G U61A A120C G140U],≤ -4.2
9,GGAUCUUCUCGAUCUAACAAAAAAGACAAAACUGCCACAAAGCUUGAGAGCAUCUUCGGAUGCAGAGGCGGCAGCCUUCGGUGGCGCGAUAGCGCGAUUGUUCUCAACUAUGACACGCAAAACGCGUGCUCCGUUGAAUGGAGUUUAUCACG [U31A C96G A98U C99U U151C],≤ -4.2
10,GGAUCUUCUCGAUCUAACAAAAAAGACAAAACUGCCACAAAGCUUGAGACGAGCUUCGGAUGCAGAGGCGGCAGCCUUCGGUGGCGCGAUAGGGCCAACGUUAUCAACUAUAACACGCGAAACGCGUGCUCCGGAGAAUGGAGUUUAUCAUG [U31A G50C C51G U53G C93G C103A G112A A119G U134G U135A],≤ -4.2
11,GGAUCUUCUCGAUCUAACAAAAAAGACAAAACUACCACAAAGCUUGAGAUCAUCUUCUGAUGCAGAGGCGGCAGCCUUCGGUGGCGCGAUAGCGCAAACGUUCUCAACUAUGACACGCAAAACGCGUGCUCCGUUAAAUUGAGUUUAUCAUG [U31A G34A G50U G58U C96A G136A G140U],≤ -4.2
12,GGAUCUUCUCGAUCUAACAAAAAAGACAAAACUGCCACAAAGCUUGAGAGCAUCUUCGCAUGCAAAGGCGGCAGGCUUCGGUGGAGCGAUAGCGCCAACGUUCUCAACUAUGACACGCAAAACGCGUGCUCCGUUGAAUGGAGUUUAUCAUG [U31A G59C G65A C75G C85A],≤ -4.2
13,GGAUCUUCUCGAUCUAACAAAAAAGACAAACCUGCCCCAAAGCUUGAGAGCAUCUUCGGAUGCAGAGGCGGCAGCCUUCGGUGGCGCGAUAUCGCAAACGUUCUCCACUAUGACACGCAAAUCGCGUGCUCCGUUGAAUGGACUUUAUCAUC [U31C A37C G92U C96A A106C A122U G143C G152C],≤ -4.2
14,GGAUCUUCUCGAUCUAACAAAAAAGACAAAACUGCCACAAAGCUUGAGAGCAUCUUCGGAUGCAGAGGCGGCAGCCUUCGGUGGUGCGAUAGCGCCAACGUUCUCAACUAUGAUACGCAAAACGCGUGCUCCGUUGAAUGGAGUUUAUCAUG [U31A C85U C114U],-1.15
15,GGAUCUUCUCGAUCUAACAAAAAAGACAAAACUGCCACAAAGCUUGACAGCAUCUUCGGAUGCAGAGGCGGCAGCCUUCGGUGGCGCGAUAUCACCCACGCUCUCAACUAUGACACGCAAAACGCGUGCUCCGUUGAAUGGAGUUUAUCAUG [U31A G48C G92U G94A A97C U101C],≤ -4.2
16,GGAUCUUCUCGAUCUAACAAAAAAGACAAAACUGCCACAAAGCUUGAGAAGAUCUUCGGAUGCAGAGGCGGCAGCCUUCGGUGGCGCGAUAGCGCCGACGUUCUCAACUAUGACGCGCAAAACGCGUGCUCCGUUGAAUGGAGUUUAUCAUG [U31A G50A C51G A97G A115G],≤ -4.2
17,GGAUCUUCUCGAUCUAACAAAAAAGACAAAACUGCCACAAAGCUUGAGAGCAACUUCGGAUGCAGAGGCGGCAGCCUUCGGUGGCGCGAUACCGCCAACGUUCUCAACUAUGACACGCAAAUCGCGUGCUCCGUUGCAUGGAGUUUAUCAUG [U31A U53A G92C A122U A137C],≤ -4.2
18,GGAUCUUCUCGAUCUAACAAAAAAGACAAAACUGCCACAAAGCUAGAGAGCAUCUUCGGAUGCAGAGGCGGCAGCCUUCGGUGGCGGGAUAGCGCCAACGGUCUCAACUAUGACACGCAAAACGCGUGCUCCGUUGAAUGGAGUUUAUCAUG [U31A U45A C87G U101G],≤ -4.2
19,GGAUCUUCUCGAUCUAACAAAAAAGACAAAACUGCCACAAAGCUUGAGAGCAUCUUCGGAUGCAGAGGCGGCAGCUUUCGGUGGCGCGAUAGCGCCAACGUUCUCAACUAUGACAUGCAAAACGCGGGCUCCGUUGAAUGGAGUUUAUCAUG [U31A C76U C116U U127G],≤ -4.2

# — the RNAGym collection of RNA variant scans (doi:10.1073/pnas.2313332121)
